Measured values from the supplement of paper PMC12230231.
± gives the standard deviation of the averaged measurements. Restriction of a single-cycle SIVsab GFP reporter by TRIM5α v1-loop variants in CRFK cells. Human variants: read share among cells still uninfected after two challenges over input, higher = gained restriction. Rhesus variants: share among infected cells over input, higher = lost restriction. Reporter dose not given per row. No active / inactive call per row; the paper calls a change when both replicates lie above its controls (mean + 2 SD of stop or wild-type variants, or the top frameshift score). Residues outside the varied loop are taken from Swiss-Prot. The paper reads the human single-substitution scores as noise; they and the rhesus combinations repeat poorly (rank correlation 0.3 to 0.4), indel scores repeat only for the top variants, rhesus substitutions well (0.9).

Each sequence was assayed on SIVsab (simian immunodeficiency virus of sabaeus monkeys), single-cycle GFP reporter, in CRFK cells (assay: enrichment among uninfected cells over input (fold); higher = stronger restriction). Settings: library: human / rhesus combinations.
Method: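 Pools of CRFK cells expressing variants of the TRIM5α v1 loop were challenged with the single-cycle reporter, sorted by GFP and sequenced; mean of two replicates.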
Work on “MASGILVNVKEEVTCPICLELLTQPLSLDCGHSFCQACLTANHKKSMLDKGESSCPVCRISYQPENIRPNRHVANIVEKLREVKLSPEGQKVDHCARHGEKLLLFCQEDGKVICWLCERSQEHRGHHTFLTEEVAREYQVKLQAALEMLRQKQQEAEELEADIREEKASWKTQIQYDKTNVLADFEQLRDILDWEESNELQNLEKEEEDILKSLTNSETEMVQQTQSLRELISDLEHRLQGSVMELLQGVDGVIKRTENVTLKKPETFPKNQRRVFRAPDLKGMLEVFRELTDVRRYWVDVTVAPNNISCAVISEDKRQVSSPKPQIIYQARGTLFTFQTLVNFNYCTGILGSQSITSGKHYWEVDVSKKTAWILGVCAGFQPDAMCNIEKNENYQPKYGYWVIGLEEGVKCSAFQDSSFHTPSVPFIVPLSVIICPDRVGVFLDYEACTVSFFNITNHGFLIYKFSHCSFSQPVFPYLNPRKCGVPMTLCSPSS [human TRIM5α, 330-340 = QARGTLFTFQTLV]” yielded an enrichment of 0.287 ± 0.051.
Work on “MASGILVNVKEEVTCPICLELLTQPLSLDCGHSFCQACLTANHKKSMLDKGESSCPVCRISYQPENIRPNRHVANIVEKLREVKLSPEGQKVDHCARHGEKLLLFCQEDGKVICWLCERSQEHRGHHTFLTEEVAREYQVKLQAALEMLRQKQQEAEELEADIREEKASWKTQIQYDKTNVLADFEQLRDILDWEESNELQNLEKEEEDILKSLTNSETEMVQQTQSLRELISDLEHRLQGSVMELLQGVDGVIKRTENVTLKKPETFPKNQRRVFRAPDLKGMLEVFRELTDVRRYWVDVTVAPNNISCAVISEDKRQVSSPKPQIIYGARGTLYTFQTFTNFNYCTGILGSQSITSGKHYWEVDVSKKTAWILGVCAGFQPDAMCNIEKNENYQPKYGYWVIGLEEGVKCSAFQDSSFHTPSVPFIVPLSVIICPDRVGVFLDYEACTVSFFNITNHGFLIYKFSHCSFSQPVFPYLNPRKCGVPMTLCSPSS [human TRIM5α, 330-340 = GARGTLYTFQTFT]” yielded an enrichment of 1.07 ± 0.44.
“MASGILVNVKEEVTCPICLELLTQPLSLDCGHSFCQACLTANHKKSMLDKGESSCPVCRISYQPENIRPNRHVANIVEKLREVKLSPEGQKVDHCARHGEKLLLFCQEDGKVICWLCERSQEHRGHHTFLTEEVAREYQVKLQAALEMLRQKQQEAEELEADIREEKASWKTQIQYDKTNVLADFEQLRDILDWEESNELQNLEKEEEDILKSLTNSETEMVQQTQSLRELISDLEHRLQGSVMELLQGVDGVIKRTENVTLKKPETFPKNQRRVFRAPDLKGMLEVFRELTDVRRYWVDVTVAPNNISCAVISEDKRQVSSPKPQIIYGAPGTLYTFPSLTNFNYCTGILGSQSITSGKHYWEVDVSKKTAWILGVCAGFQPDAMCNIEKNENYQPKYGYWVIGLEEGVKCSAFQDSSFHTPSVPFIVPLSVIICPDRVGVFLDYEACTVSFFNITNHGFLIYKFSHCSFSQPVFPYLNPRKCGVPMTLCSPSS [human TRIM5α, 330-340 = GAPGTLYTFPSLT]” was tested, and the enrichment was 0.121 ± 0.049.
“MASGILVNVKEEVTCPICLELLTQPLSLDCGHSFCQACLTANHKKSMLDKGESSCPVCRISYQPENIRPNRHVANIVEKLREVKLSPEGQKVDHCARHGEKLLLFCQEDGKVICWLCERSQEHRGHHTFLTEEVAREYQVKLQAALEMLRQKQQEAEELEADIREEKASWKTQIQYDKTNVLADFEQLRDILDWEESNELQNLEKEEEDILKSLTNSETEMVQQTQSLRELISDLEHRLQGSVMELLQGVDGVIKRTENVTLKKPETFPKNQRRVFRAPDLKGMLEVFRELTDVRRYWVDVTVAPNNISCAVISEDKRQVSSPKPQIIYGARGTRFTFQSFTNFNYCTGILGSQSITSGKHYWEVDVSKKTAWILGVCAGFQPDAMCNIEKNENYQPKYGYWVIGLEEGVKCSAFQDSSFHTPSVPFIVPLSVIICPDRVGVFLDYEACTVSFFNITNHGFLIYKFSHCSFSQPVFPYLNPRKCGVPMTLCSPSS [human TRIM5α, 330-340 = GARGTRFTFQSFT]” showed an enrichment of 0.24 ± 0.13.
“MASGILVNVKEEVTCPICLELLTQPLSLDCGHSFCQACLTANHKKSMLDKGESSCPVCRISYQPENIRPNRHVANIVEKLREVKLSPEGQKVDHCARHGEKLLLFCQEDGKVICWLCERSQEHRGHHTFLTEEVAREYQVKLQAALEMLRQKQQEAEELEADIREEKASWKTQIQYDKTNVLADFEQLRDILDWEESNELQNLEKEEEDILKSLTNSETEMVQQTQSLRELISDLEHRLQGSVMELLQGVDGVIKRTENVTLKKPETFPKNQRRVFRAPDLKGMLEVFRELTDVRRYWVDVTVAPNNISCAVISEDKRQVSSPKPQIIYQARGTRFTFQSLTNFNYCTGILGSQSITSGKHYWEVDVSKKTAWILGVCAGFQPDAMCNIEKNENYQPKYGYWVIGLEEGVKCSAFQDSSFHTPSVPFIVPLSVIICPDRVGVFLDYEACTVSFFNITNHGFLIYKFSHCSFSQPVFPYLNPRKCGVPMTLCSPSS [human TRIM5α, 330-340 = QARGTRFTFQSLT]” was tested, and the enrichment was 0.184 ± 0.011.

Same assay, conditions: library: insertions and deletions
Work on “MASGILVNVKEEVTCPICLELLTQPLSLDCGHSFCQACLTANHKKSMLDKGESSCPVCRISYQPENIRPNRHVANIVEKLREVKLSPEGQKVDHCARHGEKLLLFCQEDGKVICWLCERSQEHRGHHTFLTEEVAREYQVKLQAALEMLRQKQQEAEELEADIREEKASWKTQIQYDKTNVLADFEQLRDILDWEESNELQNLEKEEEDILKSLTNSETEMVQQTQSLRELISDLEHRLQGSVMELLQGVDGVIKRTENVTLKKPETFPKNQRRVFRAPDLKGMLEVFRELTDVRRYWVDVTVAPNNISCAVISEDKRQVSSPKPQIIYGARGTRYQTFVNFGSQSITSGKHYWEVDVSKKTAWILGVCAGFQPDAMCNIEKNENYQPKYGYWVIGLEEGVKCSAFQDSSFHTPSVPFIVPLSVIICPDRVGVFLDYEACTVSFFNITNHGFLIYKFSHCSFSQPVFPYLNPRKCGVPMTLCSPSS [human TRIM5α, 7-codon deletion at 343]” yielded an enrichment of 2.02 ± 0.89.
In the case of “MASGILVNVKEEVTCPICLELLTQPLSLDCGHSFCQACLTANHKKSMLDKGESSCPVCRISYQPENIRPNRHVANIVEKLREVKLSPEGQKVDHCARHGEKLLLFCQEDGKVICWLCERSQEHRGHHTFLTEEVAREYQVKLQAALEMLRQKQQEAEELEADIREEKASWKTQIQYDKTNVLADFEQLRDILDWEESNELQNLEKEEEDILKSLTNSETEMVQQTQSLRELISDLEHRLQGSVMELLQGVDGVIKRTENVTLKKPETFPKNQRRVFRAPDLKGMLEVFRELTDVRRYWVDVTVAPNNISCAVISEDKRQVSSPKPQIIYGARGTRYYQTFVNFNYCTGILGSQSITSGKHYWEVDVSKKTAWILGVCAGFQPDAMCNIEKNENYQPKYGYWVIGLEEGVKCSAFQDSSFHTPSVPFIVPLSVIICPDRVGVFLDYEACTVSFFNITNHGFLIYKFSHCSFSQPVFPYLNPRKCGVPMTLCSPSS [human TRIM5α, 1-codon duplication at 336]”, the enrichment is reported as 0.992 ± 0.73.
Work on “MASGILVNVKEEVTCPICLELLTQPLSLDCGHSFCQACLTANHKKSMLDKGESSCPVCRISYQPENIRPNRHVANIVEKLREVKLSPEGQKVDHCARHGEKLLLFCQEDGKVICWLCERSQEHRGHHTFLTEEVAREYQVKLQAALEMLRQKQQEAEELEADIREEKASWKTQIQYDKTNVLADFEQLRDILDWEESNELQNLEKEEEDILKSLTNSETEMVQQTQSLRELISDLEHRLQGSVMELLQGVDGVIKRTENVTLKKPETFPKNQRRVFRAPDLKGMLEVFRELTDVRRYWVDVTVAPNNISCAVISEDKRQVSSPKPQIIYGARGTRYQTFVRGTRYQTFVNFNYCTGILGSQSITSGKHYWEVDVSKKTAWILGVCAGFQPDAMCNIEKNENYQPKYGYWVIGLEEGVKCSAFQDSSFHTPSVPFIVPLSVIICPDRVGVFLDYEACTVSFFNITNHGFLIYKFSHCSFSQPVFPYLNPRKCGVPMTLCSPSS [human TRIM5α, 9-codon duplication at 332]” yielded an enrichment of 0.268 ± 0.098.
“MASGILVNVKEEVTCPICLELLTQPLSLDCGHSFCQACLTANHKKSMLDKGESSCPVCRISYQPENIRPNRHVANIVEKLREVKLSPEGQKVDHCARHGEKLLLFCQEDGKVICWLCERSQEHRGHHTFLTEEVAREYQVKLQAALEMLRQKQQEAEELEADIREEKASWKTQIQYDKTNVLADFEQLRDILDWEESNELQNLEKEEEDILKSLTNSETEMVQQTQSLRELISDLEHRLQGSVMELLQGVDGVIKRTENVTLKKPETFPKNQRRVFRAPDLKGMLEVFRELTDVRRYWVDVTVAPNNISCAVISEDKRQVSSPKPQIIYGARPQIIYGARGTRYQTFVNFNYCTGILGSQSITSGKHYWEVDVSKKTAWILGVCAGFQPDAMCNIEKNENYQPKYGYWVIGLEEGVKCSAFQDSSFHTPSVPFIVPLSVIICPDRVGVFLDYEACTVSFFNITNHGFLIYKFSHCSFSQPVFPYLNPRKCGVPMTLCSPSS [human TRIM5α, 8-codon duplication at 325]” was tested, and the enrichment was 0.386 ± 0.06.
“MASGILVNVKEEVTCPICLELLTQPLSLDCGHSFCQACLTANHKKSMLDKGESSCPVCRISYQPENIRPNRHVANIVEKLREVKLSPEGQKVDHCARHGEKLLLFCQEDGKVICWLCERSQEHRGHHTFLTEEVAREYQVKLQAALEMLRQKQQEAEELEADIREEKASWKTQIQYDKTNVLADFEQLRDILDWEESNELQNLEKEEEDILKSLTNSETEMVQQTQSLRELISDLEHRLQGSVMELLQGVDGVIKRTENVTLKKPETFPKNQRRVFRAPDLKGMLEVFRELTDVRRYWVDVTVAPNNISCAVISEDKRQVSSPKPQIIYGARGTRYQTFVNFFNYCTGILGSQSITSGKHYWEVDVSKKTAWILGVCAGFQPDAMCNIEKNENYQPKYGYWVIGLEEGVKCSAFQDSSFHTPSVPFIVPLSVIICPDRVGVFLDYEACTVSFFNITNHGFLIYKFSHCSFSQPVFPYLNPRKCGVPMTLCSPSS [human TRIM5α, 1-codon duplication at 342]” gave an enrichment of 0.889 ± 0.55.
“MASGILVNVKEEVTCPICLELLTQPLSLDCGHSFCQACLTANHKKSMLDKGESSCPVCRISYQPENIRPNRHVANIVEKLREVKLSPEGQKVDHCARHGEKLLLFCQEDGKVICWLCERSQEHRGHHTFLTEEVAREYQVKLQAALEMLRQKQQEAEELEADIREEKASWKTQIQYDKTNVLADFEQLRDILDWEESNELQNLEKEEEDILKSLTNSETEMVQQTQSLRELISDLEHRLQGSVMELLQGVDGVIKRTENVTLKKPETFPKNQRRVFRAPDLKGMLEVFRELTDVRRYWVDVTVAPNNISCAVISEDKRQVSSPKPQIIYGKPQIIYGARGTRYQTFVNFNYCTGILGSQSITSGKHYWEVDVSKKTAWILGVCAGFQPDAMCNIEKNENYQPKYGYWVIGLEEGVKCSAFQDSSFHTPSVPFIVPLSVIICPDRVGVFLDYEACTVSFFNITNHGFLIYKFSHCSFSQPVFPYLNPRKCGVPMTLCSPSS [human TRIM5α, 7-codon duplication at 324]” showed an enrichment of 0.0908 ± 0.0062.
Sequence “MASGILVNVKEEVTCPICLELLTQPLSLDCGHSFCQACLTANHKKSMLDKGESSCPVCRISYQPENIRPNRHVANIVEKLREVKLSPEGQKVDHCARHGEKLLLFCQEDGKVICWLCERSQEHRGHHTFLTEEVAREYQVKLQAALEMLRQKQQEAEELEADIREEKASWKTQIQYDKTNVLADFEQLRDILDWEESNELQNLEKEEEDILKSLTNSETEMVQQTQSLRELISDLEHRLQGSVMELLQGVDGVIKRTENVTLKKPETFPKNQRRVFRAPDLKGMLEVFRELTDVRRYWVDVTVAPNNISCAVISEDKRQVSSPKPQIIIYGARGTRYQTFVNFNYCTGILGSQSITSGKHYWEVDVSKKTAWILGVCAGFQPDAMCNIEKNENYQPKYGYWVIGLEEGVKCSAFQDSSFHTPSVPFIVPLSVIICPDRVGVFLDYEACTVSFFNITNHGFLIYKFSHCSFSQPVFPYLNPRKCGVPMTLCSPSS [human TRIM5α, 1-codon duplication at 328]” has an enrichment of 0.519 ± 0.28.
